# Laboratory results from PubChem BioAssay AID445 (National Center for Advancing Translational Sciences (NCATS), 2006).
# The whole screen tested about 110,000 compounds, of which about 40 (0.04%) were called active. The shares of active, inactive and inconclusive entries below differ from those in the screen. The call rests on the fitted dose curve; in most records, active means well fitted curve in the direction sought with a large enough effect in the signal ratio (not every such curve was filed as active); inconclusive means small, poorly fitted or top-dose-only effect, or a change in a side signal; inactive means flat fitted curve, though single readings scatter; the % refers to the signal ratio. Potencies beside an inconclusive call are fits to weak or partial responses and may not hold up.
# Experiment: IkB Signaling;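 on IkBa stabilization activation: 0% = basal untreated cells and 100% = reference inhibitor full response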
# Settings: ABC-DLBCL IkBa-CBG/CBR dual luciferase ratio (green luciferase fused to IkBa over red control in OCI-Ly3 lymphoma cells), 4 h; IkBa stabilization activation: at 57.1 µM (top of the series), scaled: untreated 0%, proteasome inhibitor 100% unless noted
# Summary of the method: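 Luminescence ratio of IκBα-fused green versus native red beetle luciferase in OCI-Ly3 cells, 4 h post-doxycycline with compound; red signal alone, scaled from basal (0%) to zero light (-100%), flagged nonspecific or cytotoxic effects.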
# Potency means the concentration at half of the fitted maximal effect.
Compound,IkBa stabilization activation,Potency
Nc1nonc1-c1nc2ccccc2[nH]1,inactive,
CCn1c(=O)c2sccc2n2c(CCCC(=O)N3CCN(c4cc(C)ccc4C)CC3)nnc12,inconclusive: -0.271% [signal inhibitor],
COc1ccc(N2C(=O)CSC23C(=O)N(CC(=O)NCc2ccccc2)c2ccccc23)cc1 (stereo unspecified),inconclusive: 0.431% [signal inhibitor],
O=c1oc(-c2ccco2)nc2c1cnn2-c1ccccc1,,"inconclusive: 39.8 µM [signal inhibitor, single point]"
COc1cccc(NC(=O)C2CC(=O)N(C)C(=Nc3cccc(F)c3)S2)c1 (stereo unspecified),inconclusive: 3.98% [signal inhibitor],
CCCc1nc(SCC(=O)N2CCN(c3ccccc3)CC2)c2c(=O)n(C)c(=O)n(C)c2n1,inactive,
COc1ccc(NC(=O)NCc2cccn2Cc2ccc(F)cc2)cc1OC,inactive,
COc1cccc(NC(=O)N(Cc2cn(C)c3ccccc23)C2CCCCC2)c1,inconclusive: 3.2% [signal inhibitor],
Cc1ccc(C)c(N2CCN(C(=O)c3ccc(CS(=O)(=O)c4ccccc4C)o3)CC2)c1,inconclusive: -1.22% [signal inhibitor],
CCOc1ccc(NC(=O)Cn2c(=O)n(Cc3ccccc3)c(=O)c3sc4ccccc4c32)cc1,inactive,
C=C(C)COc1ccc(-c2n[nH]c(C)c2Oc2ccccc2OC)c(O)c1,inconclusive: -8.33% [signal inhibitor],
Cc1cc(C)cc(NC(=O)CN2C(=O)CSc3ccc(S(=O)(=O)N4CCCC4)cc32)c1,inconclusive: 15.6% [signal inhibitor],
CCOc1ccc(NC(=O)c2c(NC(=O)c3cccc(C)c3)sc3c2CCC3)cc1,inconclusive: 19.8% [signal inhibitor],
O=C(NCC1CCN(Cc2cccc(F)c2)CC1)c1cc2ccc3cccnc3c2[nH]1,inconclusive: 4.25% [signal inhibitor],
COc1ccccc1N1CCN(S(=O)(=O)CCNC(=O)COc2ccc(F)cc2)CC1,inconclusive: -0.313% [signal inhibitor],
CCc1ccc(NC(=O)CC2C(=O)N(c3ccc(OC)cc3)C(=O)N2Cc2ccc(OC)cc2)cc1 (stereo unspecified),inconclusive: 0.955% [signal inhibitor],
Cc1cc(Nc2ccccc2)n(-c2nc3ccccc3[nH]2)n1,,"inconclusive: 25.1 µM [signal inhibitor, partial curve]"
Cc1csc2nc(CSc3nc4ccccc4o3)c(Br)n12,inconclusive: 0.813% [signal inhibitor],
COc1ccc(CCNc2ncnc3c2c(-c2ccccc2)cn3-c2cccc(Cl)c2)cc1OC,inconclusive: 1.68% [signal inhibitor],
COC(=O)c1sccc1NC(=O)c1ccncc1,inactive,
CCc1ccccc1N(C)C(=O)Nc1cn(CC(C)C)c(=O)c2ccccc12,inactive,
O=C(CSc1nc(=O)n(Cc2ccco2)c2c1CCC2)NCc1ccccc1Cl,inconclusive: 2.17% [signal inhibitor],
c1ccncc1,inactive,
CCOC(=O)/C=C(\C)Sc1cc(=O)oc2ccccc12,inconclusive: 0.866% [signal inhibitor],

Compound,IkBa stabilization activation,Potency
Cc1cc(N2CCN(C)CC2)nc2ccc(NC(=O)Nc3ccc(Cl)cc3)cc12,inactive,
Cc1cccn2c(=O)c3cc(C#N)c(=NC(=O)c4ccncc4)n(CCCOC(C)C)c3nc12,inactive,
O=C(C1CCCN(S(=O)(=O)c2ccc(Br)s2)C1)N1CCCCCC1 (stereo unspecified),inconclusive: 4.25% [signal inhibitor],
CC1CCCN(Cc2nc3c(c(=O)n(C)c(=O)n3C)n2Cc2c(F)cccc2Cl)C1 (stereo unspecified),inactive,
COc1ccccc1CNC(=O)CCCn1nc(C)c2c(C)n(-c3ccc(C)cc3)nc2c1=O,inconclusive: 5.34% [signal inhibitor],
COC(=O)c1c(SC)nc2ccccc2c1OCc1ccc(C)cc1C,inconclusive: -0.265% [signal inhibitor],
O=C(CSc1nnc2scc(-c3ccc(Cl)cc3)n12)Nc1ccccc1F,inconclusive: 1.99% [signal inhibitor],
Cc1ccc2onc(CC(=O)Nc3cc(F)ccc3F)c2c1,inconclusive: -2.47% [signal inhibitor],
COc1ccc(C(=O)Nc2ccc3c(c2)N(C2CCCC2)C(=O)c2ccccc2S3)cc1OC,inconclusive: -1.99% [signal inhibitor],
CC(CNC(=O)c1ccc(CSc2nc3ccncc3n2Cc2cccc(F)c2)cc1)c1ccccc1 (stereo unspecified),inconclusive: 2.37% [signal inhibitor],
Cc1ccc(C)c(-c2nn(CC(=O)Nc3cc(F)ccc3F)c(=O)c3c2CCCC3)c1,inconclusive: -2.02% [signal inhibitor],
COc1cc(C(=O)Nc2ccc(Cl)c(-c3nc4ncccc4o3)c2)cc(OC)c1OC,inconclusive: 4.15% [signal inhibitor],
Cc1ccccc1CNC(=O)CCCn1c(=O)c2cccn2c2ccccc21,inactive,
O=C(Cn1cc(S(=O)(=O)N2CCN(c3ccccc3F)CC2)c2ccccc2c1=O)Nc1cccc(C(F)(F)F)c1,inconclusive: 3.97% [signal inhibitor],
Cc1cccc2c1-c1sc(C(=O)N3CCN(c4ccc(F)cc4)CC3)cc1CO2,inconclusive: 8.37% [signal inhibitor],
COc1ccccc1CNC(=O)CSc1nc(-c2ccc(OC)c(OC)c2)cc(C(F)(F)F)n1,inconclusive: -2.31% [signal inhibitor],
O=C(NCC(c1cccs1)S(=O)(=O)c1cccs1)c1ccc(F)c(F)c1 (stereo unspecified),inconclusive: 3.05% [signal inhibitor],
COc1ccc(C(=O)Nc2nnc(-c3ccccc3)o2)cc1OC,,"inconclusive: 31.6 µM [rising, single point]"
C[C@@H](C(=O)O)c1ccc(C[C@@H]2CCCC2=O)cc1,inconclusive: 6.54% [signal activator],
COC(=O)c1sccc1S(=O)(=O)N(CC(=O)Nc1cc(C)ccc1C)c1ccc(C)c(C)c1,inconclusive: 1.33% [signal inhibitor],
CCC(C)NC(=O)c1ccc2c(c1)sc1nc(-c3ccc(OC)cc3)cn12 (stereo unspecified),inconclusive: 1.7% [signal inhibitor],
COC(=O)C1=C(C)NC(C)=C(C(=O)OCCSc2ccccc2)[C@@H]1C,inconclusive: -1.1% [signal inhibitor],
CCn1c(SCC(=O)Nc2nc(-c3ccccc3)cs2)nnc1-c1ccccc1O,inconclusive: -9.54% [signal inhibitor],
FC(F)(F)c1cc(-c2ccc3c(c2)OCO3)nc(NCc2ccco2)n1,,"inconclusive: 5.01 µM [rising, full curve]"

Compound,IkBa stabilization activation,Potency
CCCc1cc(=O)[nH]c(SCC(=O)N(C)CC(=O)Nc2ccccc2CC)n1,inactive,
COc1ccc(N2CCN(C(=O)c3cc4c(=O)oc5ccc(C)cc5c4s3)CC2)cc1,inactive,
Nc1ccccc1-c1nnc(SCc2ccccc2F)[nH]c1=O,,"inconclusive: 25.1 µM [signal inhibitor, partial curve]"
Cc1ccccc1Cn1nc(C)c(NC(=O)c2noc3c2CCc2ccccc2-3)c1C,inconclusive: 15.7% [signal inhibitor],
O=P(CCNCc1ccco1)(c1ccccc1)c1ccccc1,inactive,
CCOC(=O)c1ccc(NC(=O)C2=C(C)Nc3nc(CCCO)nn3C2c2cccc(C)c2)cc1 (stereo unspecified),inactive,
CCOc1ccc(N2CC(NC(=O)c3ccc4c(c3)OCO4)CC2=O)cc1 (stereo unspecified),inactive,
O=C(CSc1nnc(C2COc3ccccc3O2)o1)Nc1nccs1 (stereo unspecified),inactive,
COc1ccc2[nH]c(=O)c(CN(C3CCCCC3)C(c3nnnn3Cc3ccco3)C(C)C)cc2c1 (stereo unspecified),,active: 7.94 µM
O=C(Nc1ccccc1C(=O)OCc1cc(=O)n2nc(C3CC3)sc2n1)c1ccc(Cl)cc1,,"inconclusive: 15.8 µM [signal inhibitor, partial curve]"
Cc1ccc(C)c(N2CCN(c3nc4ccc(C)cc4nc3-n3nc(C)cc3C)CC2)c1,inconclusive: -4.82% [signal inhibitor],
CCOCCc1nnc(NC(=O)C(=O)c2cc(C)n(-c3ccc(C)c(C)c3)c2C)s1,inconclusive: 0.338% [signal inhibitor],
Cc1ccc(NC(=O)c2cccc3c(=O)c4c([nH]c23)CCCC4)c(C)c1,inconclusive: 0.677% [signal inhibitor],
CCN(CC)c1ccc(C(=O)N2CCc3c([nH]c4ccccc34)C2c2ccc(F)cc2)cc1 (stereo unspecified),inactive,
O=C(Nc1ccc2c(c1)OCO2)[C@@H]1[C@@H]2C(=O)N(C3CCCCC3)C(=O)[C@@H]2C2c3ccccc3C=CN21 (stereo partly specified),inconclusive: 18.2% [signal inhibitor],
COc1cc2nc3c4ccccc4n(CC#N)c3nc2cc1OC,inactive,
Cc1c(=O)n(OCc2ccccc2F)c2ccccc2[n+]1[O-],inactive,
c1ccsc1,inactive,
CCOC(=O)c1sc2ccccc2c1S(=O)(=O)Nc1ccc(OC)c(Cl)c1,inconclusive: 0.721% [signal inhibitor],
CCOc1ccc(NC(=O)Nc2nnc(N3CCCCC3C)s2)cc1 (stereo unspecified),inconclusive: 1.88% [signal inhibitor],
Cc1ccc(NC(=O)Nc2nnc(SCC(=O)N(C(C)C)C(C)C)s2)cc1,,inconclusive: 39.8 µM [signal inhibitor]
CCc1ccc2oc(-c3ccc(C)c(NC(=O)c4cc([N+](=O)[O-])ccc4N4CCOCC4)c3)nc2c1,,"inconclusive: 7.94 µM [signal inhibitor, partial curve]"
COc1ccc(C(=O)NCCSc2c[nH]c3ccccc23)cc1OC,inconclusive: 0.511% [signal inhibitor],
